Laboratory results as given in patent US20190083612A1 (RINAT NEUROSCIENCE, published 2019).

Columns and labels:
[1] = biological target: T1, human PD-1 (hPD-1) monomer (human, UniProt Q15116 part only); assay: SPR (ProteOn NLC chip), 25 C, n 10
T1 construct: also called hu-PD-1; not shown: His tag (His-tagged monomer)

[2] = biological target: cynomolgus monkey-PD-1 (His-tagged monomer) (cynomolgus monkey, UniProt B0LAJ3 25-170); assay: SPR (ProteOn NLC chip), 25 C, n 10
[3] = biological target: T2, human PD-1 on primary human T cells (human, UniProt Q15116 25-288); assay: FACS, activated primary human T cells, individual 1
T2 construct: Endogenous PD-1 of donor T cells; also called hu-PD-1; PD-1 on human T cells

[4] = biological target: T1, human PD-1 (hPD-1) monomer; assay: KinExA in solution, 23 C, PD-1 titrated; 95% confidence interval (24-12)
[5] = biological target: T3, cynomolgus monkey PD-1 on stably transfected Jurkat cells (cynomolgus monkey); assay: FACS, Jurkat/cynomolgus monkey-PD-1, repeat 1
T3 construct: whole, on cells; also called Jurkat/Cynomolgus Monkey-PD-1; Cynomolgus Monkey-PD-1/Jurkat

[6] = biological target: T4, human PD-1 on stably transfected Jurkat cells (human, UniProt Q15116 25-288); assay: FACS, Jurkat/human-PD-1, repeat 2
T4 construct: also called Jurkat/Human-PD-1; Human-PD-1/Jurkat

hu-FCGRI (hu-CD64) = biological target: T5, hu-FCGRI (hu-CD64) (human, UniProt P12314 16-288, limits assumed); assay: SPR (ProteOn NLC chip), 25 C, pH 7.4, n = 14
T5 construct: also called human Fc gamma receptor I

[7] = biological target: T3, cynomolgus monkey PD-1 on stably …; assay: FACS, blockade of cyno PD-L1 (20 µg/mL) on cyno-PD-1/Jurkat, repeat 2
[8] = biological target: T6, cynomolgus monkey PD-1 on primary cynomolgus monkey T cells (cynomolgus monkey, UniProt B0LAJ3 25-288); assay: FACS, blockade of PD-L1 Fc binding to PD-1 on activated cyno T cells
T6 construct: also called PD-1 on cyno T cells

[9] = biological target: T3, cynomolgus monkey PD-1 on stably …; assay: FACS, Jurkat/cynomolgus monkey-PD-1, repeat 2
[10] = biological target: T1, human PD-1 (hPD-1) monomer; assay: SPR (Biacore T200), hPD-1 monomer over anti-hFc-captured hIgG4, 25 C
Description: All interaction analysis was performed on label-free biosensors at 25° C. unless stated otherwise. Surface plasmon resonance biosensors (ProteOn-XPR™ from BioRad™, and Biacore 2000™ and Biacore T200™ from GE Life Sciences) were used to study human and cynomolgus monkey PD-1 and a biolayer interferometry biosensor (Octet-Red384, Fortebio/Pall Life Sciences) was used to study mouse PD-1. ProteOn experiments were performed in PBS pH 7.4+0.01% Tween-20 (PBST) running buffer. Biacore experiments were performed in 10 mM Hepes pH 7.4, 150 mM NaCl, 0.05% Tween-20 (HBST+) and Octet experiments were performed in HBST+ with 1 g/l BSA. The ProteOn data were processed in the ProteOn Manager software, the Biacore data were processed in Biaevaluation, and the Octet data were simply aligned to zero in the control software.
(§1) The hPD-1 was injected at active concentrations of 0, 10, and 100 nM for three minutes allowing an 18-min dissociation phase. The capture surfaces were regenerated with 75 mM phosphoric acid after each binding cycle.

[11] = biological target: T3, cynomolgus monkey PD-1 on stably …; assay: FACS, Jurkat/cynomolgus monkey-PD-1, average ± sem
[12] = biological target: T4, human PD-1 on stably transfected Jurkat …; assay: FACS, blockade of biotinylated hu-PD-L2 (20 µg/mL) on human-PD-1/Jurkat, repeat 2
[13] = biological target: T7, human C1q (complement component 1, q subcomponent) (human, UniProt P02745; P02746; P02747); assay: not described at this place
T7 construct: also called hu-C1q

[14] = biological target: T1, human PD-1 (hPD-1) monomer; assay: SPR (ProteOn NLC chip), 37 C, n 15
[15] = biological target: T4, human PD-1 on stably transfected Jurkat …; assay: FACS, Jurkat/human-PD-1, repeat 1
[16] = biological target: T4, human PD-1 on stably transfected Jurkat …; assay: FACS, blockade of biotinylated hu-PD-L1 on human-PD-1/Jurkat, average ± sem
[17] = biological target: T1, human PD-1 (hPD-1) monomer; assay: SPR (Biacore T200), hPD-1 monomer over anti-hFc-captured hIgG4, 37 C
Description: as §1

T1 sequence (Q15116 25-167 limits assumed): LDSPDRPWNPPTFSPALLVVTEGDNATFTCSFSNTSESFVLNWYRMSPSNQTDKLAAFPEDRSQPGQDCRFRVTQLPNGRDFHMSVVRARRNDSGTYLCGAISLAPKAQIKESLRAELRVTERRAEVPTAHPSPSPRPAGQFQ
Sequence of hu-FCGRI (hu-CD64) (P12314 16-288 limits assumed): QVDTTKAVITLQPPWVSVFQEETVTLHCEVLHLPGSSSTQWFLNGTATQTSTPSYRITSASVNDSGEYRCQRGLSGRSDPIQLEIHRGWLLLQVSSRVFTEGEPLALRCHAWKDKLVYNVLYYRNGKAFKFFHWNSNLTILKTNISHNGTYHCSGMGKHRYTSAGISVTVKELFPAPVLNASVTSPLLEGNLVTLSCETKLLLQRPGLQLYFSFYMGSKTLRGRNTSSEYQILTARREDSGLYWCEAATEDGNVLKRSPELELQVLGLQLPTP
T7 sequence (P02745 23-245 limits assumed, chain 1 of 3): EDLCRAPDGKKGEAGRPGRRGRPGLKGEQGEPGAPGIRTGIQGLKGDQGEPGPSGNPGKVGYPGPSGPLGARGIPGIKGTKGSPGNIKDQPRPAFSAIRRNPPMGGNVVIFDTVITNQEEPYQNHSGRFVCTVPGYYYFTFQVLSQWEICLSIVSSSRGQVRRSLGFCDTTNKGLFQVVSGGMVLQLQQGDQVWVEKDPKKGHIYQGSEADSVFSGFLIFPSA
T7 sequence (P02746 28-253 limits assumed, chain 2 of 3, further chain): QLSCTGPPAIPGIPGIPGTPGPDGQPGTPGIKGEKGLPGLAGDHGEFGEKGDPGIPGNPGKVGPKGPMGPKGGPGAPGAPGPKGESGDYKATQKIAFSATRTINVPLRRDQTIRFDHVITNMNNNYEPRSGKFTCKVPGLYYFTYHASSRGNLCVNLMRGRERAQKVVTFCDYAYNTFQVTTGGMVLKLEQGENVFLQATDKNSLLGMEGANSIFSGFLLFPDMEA
T7 sequence (P02747 29-245 limits assumed, chain 3 of 3, further chain): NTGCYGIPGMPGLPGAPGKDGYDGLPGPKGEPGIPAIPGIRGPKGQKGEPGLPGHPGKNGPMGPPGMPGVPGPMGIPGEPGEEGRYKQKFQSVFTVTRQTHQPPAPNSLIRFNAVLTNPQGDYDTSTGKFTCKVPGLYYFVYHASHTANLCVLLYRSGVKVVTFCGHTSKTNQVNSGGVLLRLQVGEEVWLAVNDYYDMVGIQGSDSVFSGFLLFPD

B1: mAb7 (human IgG4 kappa, hinge stabilized) (antibody)
heavy: QVQLVQSGAEVKKPGASVKVSCKASGYTFTSYWINWVRQAPGQGLEWMGNIYPGSSLTNYNEKFKNRVTMTRDTSTSTVYMELSSLRSEDTAVYYCARLSTGTFAYWGQGTLVTVSSASTKGPSVFPLAPCSRSTSESTAALGCLVKDYFPEPVTVSWNSGALTSGVHTFPAVLQSSGLYSLSSVVTVPSSSLGTKTYTCNVDHKPSNTKVDKRV[human IgG4 Fc with S228P (EU numbers) skipped]
light: DIVMTQSPDSLAVSLGERATINCKSSQSLWDSGNQKNFLTWYQQKPGQPPKLLIYWTSYRESGVPDRFSGSGSGTDFTLTISSLQAEDVAVYYCQNDYFYPHTFGGGTKVEIKRGTVAAPSVFIFPPSDEQLKSGTASVVCLLNNFYPREAKVQWKVDNALQSGNSQESVTEQDSKDSTYSLSSTLTLSKADYEKHKVYACEVTHQGLSSPVTKSFNRGEC
notes: also called mAb7-G4; mAb7 (G4); copies: 2 + 2
B1 gave a Kd [1] of 0.042 nM, a koff [1] of 1.8e-05 s⁻¹ and a kon [1] of 420000 M⁻¹ s⁻¹. For the same binder, the Kd [2] was 0.069 nM, the koff [2] was 2.9e-05 s⁻¹ and the kon [2] was 430000 M⁻¹ s⁻¹. The EC50 [3] was 0.0459 nM, the Kd [4] was 0.017 nM and the EC50 [5] was 0.181 nM. It also gave an EC50 [6] of 0.0666 nM, a Kd (hu-FCGRI (hu-CD64)) of 0.146 nM and an IC50 [7] of 1.05 nM. The IC50 [8] was 0.92 nM, the EC50 [9] was 0.264 nM and the Kd [10] was 0.73 nM. The koff [10] was 0.000173 s⁻¹, the kon [10] was 237000 M⁻¹ s⁻¹ and the EC50 [11] was 0.223 nM. For the same binder, the IC50 [12] was 1.41 nM, the binding result [13] was “binds” and the kon [14] was 840000 M⁻¹ s⁻¹. The EC50 [15] was 0.0628 nM, the IC50 [16] was 0.88 nM and the Kd [17] was 0.85 nM. For the same binder, the koff [17] was 0.000363 s⁻¹ and the kon [17] was 428000 M⁻¹ s⁻¹.
